The target in assay [1] is T1, Pol31, Gal4 DNA-binding domain fusion (pGBT9, pID1023) (yeast), P46957.
T1 chain: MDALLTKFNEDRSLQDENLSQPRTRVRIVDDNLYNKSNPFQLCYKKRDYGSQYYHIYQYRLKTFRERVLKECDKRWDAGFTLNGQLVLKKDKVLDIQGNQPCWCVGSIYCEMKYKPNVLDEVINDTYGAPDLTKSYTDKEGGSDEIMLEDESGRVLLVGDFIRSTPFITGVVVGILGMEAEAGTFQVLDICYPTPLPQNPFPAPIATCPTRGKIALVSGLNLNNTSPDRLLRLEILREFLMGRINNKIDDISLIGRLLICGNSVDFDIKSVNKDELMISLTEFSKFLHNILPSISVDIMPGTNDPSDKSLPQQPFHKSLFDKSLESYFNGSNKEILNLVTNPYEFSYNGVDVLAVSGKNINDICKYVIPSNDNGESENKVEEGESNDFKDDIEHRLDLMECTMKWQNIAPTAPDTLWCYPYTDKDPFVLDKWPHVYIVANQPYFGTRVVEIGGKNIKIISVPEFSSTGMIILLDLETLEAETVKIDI
The assay can be described thus: two-hybrid; Gal4 binding and activation domain fusions co-transformed into PJ69-4A; growth on SC-leu/trp/his (HIS3 reporter); 3-AT added to test the strength of the interactions; 30 °C, 3-5 days. To be noted: remark: other sources report otherwise.

Assay [2] addresses T2, Pol3, catalytic subunit of Polδ, two-hybrid fusion (yeast), P15436.
T2 chain: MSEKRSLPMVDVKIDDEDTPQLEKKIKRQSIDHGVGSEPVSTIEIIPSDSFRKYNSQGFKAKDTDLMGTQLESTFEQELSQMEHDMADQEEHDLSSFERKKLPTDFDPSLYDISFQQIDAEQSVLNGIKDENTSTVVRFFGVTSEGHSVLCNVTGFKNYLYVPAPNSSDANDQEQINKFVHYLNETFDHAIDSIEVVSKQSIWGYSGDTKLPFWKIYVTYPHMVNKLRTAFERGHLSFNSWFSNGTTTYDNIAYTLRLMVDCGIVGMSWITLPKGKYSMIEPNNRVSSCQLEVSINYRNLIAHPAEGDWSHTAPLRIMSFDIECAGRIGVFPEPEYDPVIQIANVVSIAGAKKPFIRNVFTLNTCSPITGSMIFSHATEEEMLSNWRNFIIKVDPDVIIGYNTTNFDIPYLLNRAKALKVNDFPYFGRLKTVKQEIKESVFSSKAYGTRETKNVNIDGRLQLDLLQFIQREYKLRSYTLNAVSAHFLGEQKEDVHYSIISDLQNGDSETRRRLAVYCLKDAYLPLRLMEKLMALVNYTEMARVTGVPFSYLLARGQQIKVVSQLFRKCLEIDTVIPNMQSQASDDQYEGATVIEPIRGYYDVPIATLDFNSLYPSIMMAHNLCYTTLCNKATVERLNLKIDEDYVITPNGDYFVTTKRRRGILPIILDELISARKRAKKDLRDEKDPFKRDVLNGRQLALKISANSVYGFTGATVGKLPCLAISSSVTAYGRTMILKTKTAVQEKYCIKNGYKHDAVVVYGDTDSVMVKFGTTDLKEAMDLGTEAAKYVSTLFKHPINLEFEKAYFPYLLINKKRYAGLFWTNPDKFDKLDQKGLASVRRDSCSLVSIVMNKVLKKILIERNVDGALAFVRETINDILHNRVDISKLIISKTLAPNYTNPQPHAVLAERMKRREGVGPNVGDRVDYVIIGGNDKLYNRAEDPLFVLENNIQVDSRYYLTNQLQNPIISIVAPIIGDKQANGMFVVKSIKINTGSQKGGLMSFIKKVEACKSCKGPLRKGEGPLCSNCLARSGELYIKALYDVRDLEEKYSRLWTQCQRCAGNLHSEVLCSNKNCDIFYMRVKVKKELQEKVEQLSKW
The assay is described as above. Particulars: remark: other sources report otherwise.

These are yes or no findings as the source states them, for the method shown. Some entries that bind do so weakly or less than the wild type. Where a sequence is shown, tags or fusion partners need not be part of it.

B1: wild-type PCNA, Gal4 activation domain fusion (pGAD424 + 1, pID999), P15873 1-258 (protein)
chain: MLEAKFEEASLFKRIIDGFKDCVQLVNFQCKEDGIIAQAVDDSRVLLVSLEIGVEAFQEYRCDHPVTLGMDLTSLSKILRCGNNTDTLTLIADNTPDSIILLFEDTKKDRIAEYSLKLMDIDADFLKIEELQYDSTLSLPSSEFSKIVRDLSQLSDSINIMITKETIKFVADGDIGSGSVIIKPFVDMEHPETSIKLEMDQPVDLTFGAKYLLDIIKGSSLSDRVGIRLSSEAPALFQFDLKSGFLQFFLAPKFNDEE
For B1, the results for the binding entry in assay [1] and in assay [2] were “binds” and “no binding”, respectively.

These data come from PMC8956578, “The inner side of yeast PCNA contributes to genome stability by mediating interactions with Rad18 and the replicative DNA polymerase δ” (Scientific Reports, 2022).
